The source gives many values for each of these; only a part stands here.
Details: 100 kPa

CCn1cc[n+](C)c1.N#C[S-]
Details	viscosity [mPa·s]
293.15 K	27.9
298.15 K	22.68
303.15 K	19.09
308.15 K	16.39
313.15 K	14.18
318.15 K	12.43
